Laboratory results: the RNAGym collection of RNA variant scans (doi:10.1093/nar/gkz1192)
Read counts are not given, so values of variants with three or more changes are uncertain.

B1: CPEB3 Ribozyme (parent)
chain: UAACAGGGGGCCACAGCAGAAGCGUUCACGUCGCAGCCCCUGUCAGAUUCUGGUGAAUCUGCGAAUUCUGCUGUAUAUCUC

Variants of: B1
Assay: self-cleavage, relative activity (ratio to wild type); higher = more cleavage; in vitro, sequencing
Summary of the method: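 Barcoded CPEB3 ribozyme mutants, produced by rounds of error-prone PCR, self-cleaved while being transcribed with T7 RNA polymerase for 5 hours at 37°C and during a subsequent 15 min DNase I step before EDTA was added. Sequencing of template-switched cDNA on Illumina gave cleaved and total reads, and DNA sequencing assigned barcodes to variants. Each variant's relative activity is its cleaved/total read fraction divided by the unmutated ribozyme's fraction, averaged across three batches. A variant needed a minimum of 5 reads.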
For U26A A35C A45G C62A U74C, the self-cleavage was 0.09. For U25C U43C U54G, the self-cleavage was 0.13. For U25C U43C U54C U80C, the self-cleavage was 0.12. In the case of U25C U60C U74C, the self-cleavage is reported as 0.37. In the case of U25G A64G U76A U78A, the self-cleavage is reported as 0.42. In the case of U26A A35G C40U U48C U54C A57G, the self-cleavage is reported as 1.27. In the case of U25C U48C A56U U67C, the self-cleavage is reported as 0.16. U25C U43C C44U U60C C79A showed a self-cleavage of 0.17. With U25C U31C U54C U66C the self-cleavage was 0.13. Variant U26A A28G A65G has a self-cleavage of 0.14. For U25C U31G A56G A57U A65U A75G, the self-cleavage was 0.1. U25C U43G A45G showed a self-cleavage of 0.12. With U25C U31C U43C A56G U72A C81U the self-cleavage was 0.1. U25G U26A U74C A77U showed a self-cleavage of 0.79. U26A U54C U80C gave a self-cleavage of 0.94. U26A C29G A77G U80C showed a self-cleavage of 0.13. For U26A U51C U54C, the self-cleavage was 0.77. For U26A U41A U48C U51C U60A, the self-cleavage was 0.1. Variant U25C U54C U67A has a self-cleavage of 0.29. In the case of U26A U31C A45G U54A U66C, the self-cleavage is reported as 0.14. For U26A A47U A57G G63U U67C C71U, the self-cleavage was 0.03. Work on U26A U43A U49C A64U yielded a self-cleavage of 0.1. With U26A U41C A56U U69A the self-cleavage was 0.16. U26A C32A A35G U49A U51C gave a self-cleavage of 0.14. For U26A A35G G42A U74C, the self-cleavage was 0.42. Work on U26A U41C A47G A57C yielded a self-cleavage of 0.18. With U26A C59A U60C the self-cleavage was 0.12. In the case of U25C U51A U69C, the self-cleavage is reported as 0.15. Variant U25G C29G A64G U78C has a self-cleavage of 0.13. Variant U25C U41C U74C has a self-cleavage of 0.14. Work on U25C U48C U60C C81U yielded a self-cleavage of 0.17. With U25C U48C G70A U72A the self-cleavage was 0.09. In the case of U26A C50U A64G U67A U69A G73A A75G, the self-cleavage is reported as 0.16. Work on U25C U41C U49A U54C G61A U72A U80A yielded a self-cleavage of 0.07. Variant U25C U51C A56U has a self-cleavage of 0.08. U26A A45U U72A showed a self-cleavage of 0.21. U25C U41C U51C U54C showed a self-cleavage of 0.26. Variant U25C U49C A56C has a self-cleavage of 0.16. U26A C34G A65U U69C U78C showed a self-cleavage of 0.07. Work on U25C U51A A56G U60A U66C G70A yielded a self-cleavage of 0.19. Variant U26A A45C U51A has a self-cleavage of 0.2. Work on U25C U41C A56U U60C yielded a self-cleavage of 0.11. U26A A45G A47G U74C U80C gave a self-cleavage of 0.57. U25C U41C G42A A47G U80C showed a self-cleavage of 0.2. U26A U43C A56G A65G showed a self-cleavage of 0.16. U25C U31A C37U showed a self-cleavage of 0.13. Variant U25C U41G U80C has a self-cleavage of 0.35. U26A A28G U72A showed a self-cleavage of 0.08. Work on U26A U51A U76A yielded a self-cleavage of 0.76. For U25C U41C A56U U67C, the self-cleavage was 0.11. For U26A C37A U54C, the self-cleavage was 0.11. U26A U51C A65G showed a self-cleavage of 0.62. In the case of U25C U54C A64G U72C U80C, the self-cleavage is reported as 0.41. U25C U41C A47G showed a self-cleavage of 0.28. U26A C37A U41A U51A A57G U58C gave a self-cleavage of 0.09. U26A A35U G46U U58C A75G U78A showed a self-cleavage of 0.06. U26A U31A C34G U69C U72C gave a self-cleavage of 0.14. U26A A28G G36A U41A U49C U67C gave a self-cleavage of 0.05. U25C U41A A56G A64G C81U gave a self-cleavage of 0.04. Work on U25C U51C A64G U67C yielded a self-cleavage of 0.13. Work on U25C U49C U74C A75G A77U yielded a self-cleavage of 0.14. U25C U43C U60A A64G U80A showed a self-cleavage of 0.38. U25C U54C U69A U72C U80G gave a self-cleavage of 0.07. For U25C U31C U51G, the self-cleavage was 0.14. Work on U25C U41C C62U U69A U76A yielded a self-cleavage of 0.07. With U25C U54C U72C the self-cleavage was 0.12. U26A U54A A57G showed a self-cleavage of 0.71. Work on U26A U54C U60A yielded a self-cleavage of 0.82. With U25C U41C A45G U74C the self-cleavage was 0.1. Work on U26A C40U U48C U80G yielded a self-cleavage of 0.29. U25G U31C A47U C68A U80C gave a self-cleavage of 0.05. Variant U26A A47U A56G A77G has a self-cleavage of 0.12. Work on U25C U48C U80C yielded a self-cleavage of 0.39. In the case of U26A A28G C40G A64G, the self-cleavage is reported as 0.06. In the case of U25C U31A C59U, the self-cleavage is reported as 0.17. In the case of U25G A28G A35G U54C U60A, the self-cleavage is reported as 0.04. Work on U26A G42C A45G yielded a self-cleavage of 0.14. U25C U41C U54A showed a self-cleavage of 0.31. U26A U41G A45G gave a self-cleavage of 0.24. In the case of U26A C50A A57G, the self-cleavage is reported as 0.3. Work on U26A U31C A35G U60C yielded a self-cleavage of 0.38. U26A A28U U43C A45G gave a self-cleavage of 0.07. In the case of U25C U54C U60A U78C, the self-cleavage is reported as 0.1. In the case of U26A A56G U67C, the self-cleavage is reported as 0.39.
